Results taken from PubChem BioAssay AID1458 (National Center for Advancing Translational Sciences (NCATS), 2008).
Among all 210,000 compounds or so, about 5,900 (2.8%) were called active. The shares of active, inactive and inconclusive entries below differ from those in the screen. Calls come from the whole dose curve; as a rule, active = well fitted activation curve with a large enough effect; inconclusive = small, poorly fitted or top-dose-only effect; inactive = no such curve, though single readings can be large or run the other way. Potencies of inconclusive entries are doubtful fits and often do not repeat.

Test: qHTS Assay for Enhancers of SMN2 Splice Variant Expression; note: nearly all actives have a fitted effect of over 55% in size
Conditions: HEK293 SMN2-luciferase splicing reporter, luminescence, 30-36 h; series mostly up to 46.1 µM
Method in brief: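 HEK293 cells carry an SMN2 minigene-luciferase reporter in which exon 7 inclusion puts luciferase in frame. Cells were seeded at 2000 cells/well, attached for 10-12 hours, then exposed to compounds for 30-36 hours at 37C before ONE-Glo luminescence.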
Potency is the fitted concentration of half-maximal effect; tags give direction and shape of the fitted curve.

SMILES | Potency
CCOC(=O)CC(C#N)c1cn(C)c2ccccc12 (centres undefined) | inactive
COc1cc(-c2n[nH]c(=S)n2-c2cc(C(F)(F)F)ccc2Cl)cc(OC)c1OC | inconclusive: 8.91 µM [activator, partial curve, poor fit]
COc1cccc(NC(=O)CSCn2nnc3c(=O)[nH]c(Cc4ccc(F)cc4)nc32)c1 | inactive
Cc1ccccc1Cn1ccc(NC(=O)c2nc3ncccn3n2)n1 | inconclusive: 20 µM [activator, partial curve, poor fit]
COc1ccc(CN=C2NN=C(c3cccc(OC)c3)CS2)cc1 | active: 28.2 µM
C=CCSc1nnc(-c2sc(-c3ccccc3)nc2C)n1C | inconclusive: 22.4 µM [activator, single point]
CCC(C)n1[nH]c(=O)c2c(C)cc(C)nc21 (centres undefined) | inconclusive: 17.8 µM [activator, partial curve, poor fit]
Cc1ccnc2nc(C(=O)N3CCN(c4ccc(F)cc4)CC3)nn12 | inconclusive: 5.62 µM [activator, single point]
Cc1ccc(S(=O)(=O)c2nc(-c3cccc(C)c3)oc2N2CCCCC2)cc1 | inactive
COc1ccc(C(=O)Nc2cc(OC)cc(OC)c2)cc1 | active: 25.1 µM
O=C(O)/C=C/C(=O)Nc1ccc(Oc2ccc(NC(=O)/C=C/C(=O)O)cc2)cc1 | inconclusive: 2.51 µM [activator, full curve, poor fit]
CCOc1ccc(-c2nc(CSc3nnc(N)s3)cs2)cc1 | inconclusive: 4.47 µM [activator, single point]
O=C(Nc1ccc(S(=O)(=O)Nc2ncccn2)cc1)c1ccc(Br)s1 | inconclusive: 4.47 µM [activator, full curve, poor fit]
CCOC(=O)C1=C(CN2CCC(C)CC2)NC(=O)NC1c1ccc(Cl)cc1 (centres undefined) | inconclusive: 1.12 µM [activator, partial curve, poor fit]
CCOC(=O)c1c(C)[nH]c(C(=O)CN2C(=O)C(=O)N(CC(C)C)C2=O)c1C | inconclusive: 12.6 µM [activator, single point]
Cc1ccc(C(=O)O/N=C(/c2nonc2N)N(C)C)cc1 | inconclusive: 0.199 µM [activator, full curve, poor fit]
CCOC(=O)c1ccc(NC(=O)C(C)N(c2ccc(OCC)cc2)S(C)(=O)=O)cc1 (centres undefined) | inactive
CC(=O)Nc1ccc(NC(=O)Cn2cc3c(n2)CCC(C)C3)cc1 (centres undefined) | inconclusive: 1 µM [activator, full curve, poor fit]
Cc1ccc2c(c1)C(=O)C(=O)N2Cc1ccc(OC(C)C)cc1 | inactive
COc1ccc(NS(=O)(=O)c2cc(C)ccc2OC)cc1OC | inconclusive: 2.24 µM [activator, partial curve]
CCc1ccccc1NC(=O)CSc1ncc(S(=O)(=O)c2ccccc2)c(=O)[nH]1 | inactive
CCn1c(=N)n(CC(=O)c2cccc(OC)c2)c2ccccc21 | inconclusive: 20 µM [activator, single point]

SMILES | Potency
Cc1ccc2nc(NCc3ccccc3)c(C=NCc3ccccc3)c(=O)n2c1 | inconclusive: 14.1 µM [activator, single point]
Oc1ccc(/C=C/c2ccnc3ccccc23)cc1 | inactive
Cc1ccc(/C=N/N=C/c2ccc(C)s2)s1 | active: 7.08 µM
CCCN1CCC(N2CCN(c3cccc(C(F)(F)F)c3)CC2)CC1 | inconclusive: 2 µM [activator, partial curve, poor fit]
Cc1cccc(Nc2cnn(C34CC5CC(CC(CC(=O)O)(C5)C3)C4)c(=O)c2Cl)c1 | inconclusive: 35.5 µM [activator, single point]
COc1cc(OC)cc(-c2nc3ccccc3s2)c1 | inconclusive: 35.5 µM [activator, single point]
COc1ccc(NC(=O)c2oc3ccccc3c2NC(=O)Cc2cccs2)cc1 | inconclusive: 31.6 µM [activator, single point]
Cc1ccc(NC(=O)c2sc3nc(-c4ccc(F)cc4)ccc3c2N)cc1F | inconclusive: 5.62 µM [activator, full curve]
C=C(C)c1nc2cc(OC)c(OC)cc2c(=O)o1 | inconclusive: 3.98 µM [activator, full curve, poor fit]
Cc1ccccc1-c1nc(CN2CCC(C(=O)NCC3CCCO3)CC2)c(C)o1 (centres undefined) | inconclusive: 3.16 µM [activator, partial curve]
Nc1nc(-c2sc3nc4c(cc3c2N)CCCC4)nc(N2CCOCC2)n1 | inconclusive: 5.01 µM [activator, partial curve]
O=C(CCn1c(=O)c2sccc2n(CC(=O)Nc2ccccc2)c1=O)NCc1ccccc1Cl | inactive
Cc1cc(C(=O)CSc2nnc(N)s2)c(C)n1Cc1ccco1 | inconclusive: 2.82 µM [activator, partial curve, poor fit]
COC(=O)c1sc2nc(-c3ccco3)ccc2c1N | active: 6.31 µM
COc1ccc(OCCCC(=O)Nc2nnc(C3CCCO3)s2)cc1 (centres undefined) | inconclusive: 0.02 µM [activator, full curve, poor fit]
COc1ccccc1CCC(=O)Nc1nc2ccccc2[nH]1 | active: 12.6 µM
Cc1ccc2c(nc3s/c(=C/c4cccs4)c(=O)n32)c1C | inconclusive: 25.1 µM [activator, single point]
COP(=O)(OC)C(Nc1ccc(C)cc1)c1ccc([N+](=O)[O-])cc1 (centres undefined) | inconclusive: 20 µM [activator, partial curve, poor fit]
O=C(O)c1ccccc1CSc1nc2ccccc2o1 | inconclusive: 17.8 µM [activator, partial curve, poor fit]
CCOc1ccc(/C=C2/SC(=O)NC2=S)cc1 | inconclusive: 12.6 µM [activator, partial curve]
CCOc1cc(C(=O)Nc2ccc(NC(=O)c3cc4ccccc4o3)c(OC)c2)cc(OCC)c1OCC | inactive
CS(=O)(=O)N(CC(=O)O)c1cc(Cl)cc(Cl)c1 | inconclusive: 5.01 µM [activator, partial curve]
